Assay results reported in paper PMC12434519 (ACS Medicinal Chemistry Letters, 2025).
Several values for one entry are separate records, joined by “and”; a condition that tells them apart may be missing. Equal values may be shown once. Read-outs that look alike come from different tables or passages of the source.

Assays:
SARS-CoV-2 NSP14 [1] = target: T1, SARS-CoV-2 NSP14 (Severe acute respiratory syndrome coronavirus 2, UniProt P0DTD1); test: biochemical; conditions: for NSP14 SARS COV2 : Hill slope: Sheet2
SARS-CoV-2 NSP14 [2] = target: T1, SARS-CoV-2 NSP14; conditions: for ∆TM (°C) / Average Tm NSP14 (ºC) + compound + SAH: HTS hits; for Average Tm NSP14 (ºC) + compound + SAH: NSP14 + SAH 48.0; for TM of NSP14 + SAH + compound (ternary complex) / TM of NSP14 + compound (absence of SAH): n = 3; for TM Replicate 1 (ºC) (NSP14+SAH+cmpd): NSP14+SAH 47; for TM Replicate 1 (ºC) (NSP14+SAH+cmpd) / TM (ºC) (NSP14+compound): SBVS hits; for TM (ºC) (NSP14+compound): NSP14 alone 43
[3] = 0.75 h, read-out: NSP14 SARS COV2 : Maximum measured (%)
[4] = HTS hits, Suppl. Table 3 Sheet1, read-out: IC50
[5] = Sheet1, NSP14+SAH+compound vs NSP14+SAH
[6] = HTS hits, Suppl. Table 3 Sheet2, read-out: NSP14 SARS COV2 : IC50
[7] = LUM % inhibition, read-out: SARS-CoV-2 NSP14 inhibition: IC50
[8] = LUM % inhibition, read-out: SARS-CoV-2 NSP14 inhibition: Maximum response
[9] = fit of concentration-response curve
[10] = n = 3, read-out: IC50 for the inhibition of SARS-CoV-2 NSP14 (95% CI)

SMILES | Emax (SARS-CoV-2 NSP14 [1]; [3]) | NSP14 SARS COV2 : Hill slope (SARS-CoV-2 NSP14 [1]; HTS hits) | IC50 (SARS-CoV-2 NSP14 [1]; [4]) | ∆TM (°C) (SARS-CoV-2 NSP14 [2]; [5]) | ∆TM (°C) (SARS-CoV-2 NSP14 [2]; Sheet2, compound + SAH vs SAH) | Average Tm NSP14 (ºC) + compound + SAH (SARS-CoV-2 NSP14 [2]) | IC50 (SARS-CoV-2 NSP14 [1]; [7]) | Emax (SARS-CoV-2 NSP14 [1]; [8]) | SARS-CoV-2 NSP14 inhibition: Hill slope (SARS-CoV-2 NSP14 [1]; SBVS hits) | SARS-CoV-2 NSP14 inhibition: Hill slope (SARS-CoV-2 NSP14 [1]; [9]) | IC50 (SARS-CoV-2 NSP14 [1]; [10]) | TM Replicate 1 (ºC) (NSP14+SAH+cmpd) (SARS-CoV-2 NSP14 [2]) | TM (ºC) (NSP14+compound) (SARS-CoV-2 NSP14 [2]) | other results
CCCCc1ccc(S(=O)(=O)c2cnc(SCC(=O)Nc3nccs3)[nH]c2=O)cc1 [RU-0369737, CCCCC1=CC=C(S(=O)(=O)C2=CN=C(SCC(=O)NC3=NC=CS3)NC2=O)C=C1] | 79.6% | 0.954 | 7.1 µM | 1.5 °C | 1.5 °C | 49.5 ºC | – | – | – | – | – | – | – | –
COc1ccc2oc(C)c(C(=O)Nc3ccc(S(=O)(=O)Nc4onc(C)c4C)cc3)c2c1 [RU-0357296, COC1=CC2=C(OC(C)=C2C(=O)NC2=CC=C(S(=O)(=O)NC3=C(C)C(C)=NO3)C=C2)C=C1] | 101% | 0.746 | – | 6.0 °C | 6.0 °C | 54.0 ºC | – | – | – | – | – | – | – | IC50 (SARS-CoV-2 NSP14 [1]; [6]): 0.402 µM
Cc1cc(S(=O)(=O)c2cc(C(=O)NCc3c(F)ccc4cnn(C5CC5)c34)n(C)c2C)cc2cn[nH]c12 [TDI-016037] | – | – | – | – | – | – | – | – | – | – | – | – | – | IC50 (SARS-CoV-2 NSP14 [1]; Inhibition of SARS-CoV-2 NSP14: IC50, Figure 1b, n = 3): ≤ 0.00015 µM; TM of NSP14 + SAH + compound (ternary complex) (SARS-CoV-2 NSP14 [2]): 69.8 °C; TM of NSP14 + compound (absence of SAH) (SARS-CoV-2 NSP14 [2]): 44.7 °C
Cc1ccc(NC(=O)Cn2nnc3ccccc3c2=O)cc1S(=O)(=O)N1CCCCC1 [RU-0833928, S(=O)(=O)(N1CCCCC1)c1c(C)ccc(NC(=O)CN2N=Nc3c(cccc3)C2=O)c1] | – | – | – | – | – | – | 9.13 µM | 61.5% | 1.47 | 1.47 | ≤ 10 µM and 9.1 µM | 48 ºC | 43 ºC | TM of NSP14 + SAH + compound (ternary complex) (SARS-CoV-2 NSP14 [2]; DSF, NSP14 + SAH 47.3 °C): 48.3 ± 0.3 °C and 48.3 °C; TM of NSP14 + compound (absence of SAH) (SARS-CoV-2 NSP14 [2]; DSF, NSP14 alone […]): 42.7 ± 0.6 °C
COc1ccccc1-c1cc(C(=O)NC(C)c2cnn(-c3ccccn3)c2C)[nH]n1 (stereo not shown) [RU-0032489, C1(C(NC(C2=CC(C3=CC=CC=C3OC)=NN2)=O)C)=C(C)N(C2=NC=CC=C2)N=C1] | 80.4% | 0.959 | 7.23 µM | 0.5 °C | 0.5 °C | 48.5 ºC | – | – | – | – | – | – | – | –
Cc1cccc(C(=O)NCC2CCC3(CN(C(=O)c4cc(C)c5[nH]ncc5c4)C3)O2)c1F (stereo not shown) [RU-0834174, CC1=CC(C(=O)N2CC3(C2)CCC(CNC(=O)C2=CC=CC(C)=C2F)O3)=CC2=C1NN=C2] | – | – | – | – | – | – | 6.1 µM | 81.8% | 1.1 | 1.1 | – | 48 ºC | 43 ºC | –
CCn1nc(C)c(C(=O)NCCc2ccc(CNC(=O)c3ccc4[nH]ncc4c3)cc2)c1C [RU-0834081, CCN1N=C(C)C(C(=O)NCCC2=CC=C(CNC(=O)C3=CC4=C(C=C3)NN=C4)C=C2)=C1C] | – | – | – | – | – | – | 2.67 µM | 93.9% | 1.15 | 1.15 | 2.7 µM | 48.5 ºC | 43 ºC | TM of NSP14 + SAH + compound (ternary complex) (SARS-CoV-2 NSP14 [2]; DSF, NSP14 + SAH 47.3 °C): 48.5 ± 0.0 °C and 48.5 °C; TM of NSP14 + compound (absence of SAH) (SARS-CoV-2 NSP14 [2]; DSF, NSP14 alone […]): 42.5 ± 0.5 °C
COc1ccc(-c2ocnc2C(=O)Nc2ccc3oc(=O)n(CC(=O)N4CCCCC4)c3c2)cc1 [RU-0833661, COC1=CC=C(C2=C(C(=O)NC3=CC=C4OC(=O)N(CC(=O)N5CCCCC5)C4=C3)N=CO2)C=C1] | – | – | – | – | – | – | 9.42 µM | 74.4% | 1.5 | 1.5 | ≤ 10 µM | 46.5 ºC | 43 ºC | –
O=S(=O)(c1cccc2nsnc12)N1CCc2ccccc2C1 [RU-0378384, O=S(=O)(N1CCC2=CC=CC=C2C1)C1=CC=CC2=NSN=C12] | 86.5% | 0.656 | – | 1.0 °C | 1.0 °C | 49.0 ºC | – | – | – | – | – | – | – | IC50 (SARS-CoV-2 NSP14 [1]; IC50 (µM), HTS hits, Suppl. Table 3 Sheet1): 9.19 µM
CC(=O)N1CCc2cc(S(=O)(=O)Nc3cccc(Cl)c3C)ccc21 [RU-0121476, S(NC1=C(C)C(Cl)=CC=C1)(C1=CC2=C(N(C(=O)C)CC2)C=C1)(=O)=O] | 73.1% | 1.5 | 4.54 µM | 1.5 °C | 1.5 °C | 49.5 ºC | – | – | – | – | – | – | – | –
CC1(c2csc(Nc3ccccc3Cl)n2)CCC(=O)O1 (stereo not shown) [RU-0325359, CC1(C2=CSC(NC3=CC=CC=C3Cl)=N2)CCC(=O)O1] | 95.6% | 0.797 | 3.73 µM | 2.5 °C | 2.5 °C | 50.5 ºC | – | – | – | – | – | – | – | IC50 (SARS-CoV-2 NSP14 [1]; [6]): 4.7 µM
Cc1ccc(S(=O)(=O)Nc2nc3ccc(NC(=O)Cc4ccccc4)cc3s2)cc1 [RU-0359102, CC1=CC=C(S(=O)(=O)NC2=NC3=CC=C(NC(=O)CC4=CC=CC=C4)C=C3S2)C=C1] | 70.9% | 1.48 | 11.9 µM | 0.5 °C | 0.5 °C | 48.5 ºC | – | – | – | – | – | – | – | –
O=C(Cn1cccc(-c2nc(-c3ccccc3)no2)c1=O)Nc1ccc(F)cc1F [RU-0833868, Fc1c(NC(=O)CN2C=CC=C(c3nc(c4ccccc4)no3)C2=O)ccc(F)c1] | – | – | – | – | – | – | 9.36 µM | 93.9% | 2.93 | 2.93 | ≤ 10 µM | 46.5 ºC | 43 ºC | –
Cc1cnc(C(C)NC(=O)c2ccc(CNC(=O)c3ccc(O)c(C)c3)cn2)nc1 (stereo not shown) [RU-0834184, CC1=CN=C(C(C)NC(=O)C2=NC=C(CNC(=O)C3=CC=C(O)C(C)=C3)C=C2)N=C1] | – | – | – | – | – | – | 6.76 µM | 84.2% | 1.05 | 1.05 | 6.8 µM | 48 ºC | 43 ºC | –
